Data taken from patent publication US20230416330A1, “Optimized GIP Peptide Analogues” (Antag Therapeutics ApS, priority 2019, published 2023).
Part of at least one peptide drawing is inferred or uncertain, most often the ends. Starred links: 1 amine or outer side, 2 acyl side, 3 side chain; linkers in the order of their positions; H or OH if unused. Residues, ends and D or L forms follow the SMILES beside them. Groups on a side chain read outwards from the residue. *: point of attachment. C18 diacid = O=C(O)CCCCCCCCCCCCCCCCC(=O)*; γGlu = O=C(O)[C@H](CCC(=O)[*:2])N[*:1]; AEEA = NCCOCCOCC(=O)O

Columns and labels:
human GIP receptor = biological target: T1, human GIP receptor (Homo sapiens, UniProt P48546); experiment: cAMP assay Alternative 1 (CisBio assay), GIPR antagonism; assay type: cell-based; settings: Table 2A; HEK-293 cells transiently expressing hGIPR; agonist GIP1-42 at EC50
T1 construct: host or cells: HEK-293 cells, transient transfection (Lipofectamine 2000), cDNA in pCMV-Script vector
T1 sequence (P48546 22-466): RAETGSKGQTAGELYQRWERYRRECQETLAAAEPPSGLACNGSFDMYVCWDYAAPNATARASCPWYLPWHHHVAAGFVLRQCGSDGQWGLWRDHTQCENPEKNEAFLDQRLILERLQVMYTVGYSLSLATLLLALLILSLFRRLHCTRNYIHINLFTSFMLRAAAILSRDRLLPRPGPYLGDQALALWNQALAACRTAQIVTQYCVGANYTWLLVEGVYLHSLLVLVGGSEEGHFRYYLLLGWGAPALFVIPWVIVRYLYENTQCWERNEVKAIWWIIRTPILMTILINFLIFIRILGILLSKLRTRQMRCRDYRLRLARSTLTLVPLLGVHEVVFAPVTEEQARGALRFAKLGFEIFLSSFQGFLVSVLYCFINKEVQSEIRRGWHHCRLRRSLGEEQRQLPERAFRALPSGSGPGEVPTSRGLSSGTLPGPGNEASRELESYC
Procedure: HEK293 cells were cultured in 10% CO2 and 37° C. in Dulbecco's modified Eagle's medium supplemented with 10% fetal bovine serum, 2 mM glutamine, 180 units/ml penicillin, and 45 µg/ml streptomycin. Transient transfection with hGIPR for the CisBio assay from Table 2C was performed by using Lipofectamine 2000.
The in vitro functional activity of compounds towards human GIP receptor can also be determined in HEK-293 cells transiently expressing the receptor. On the day of the assay, cells were resuspended in HBSS buffer (Gibco, 14025-50) supplemented with […] (Gibco, 15630-106), 0.1% Pluronic F-68 (Gibco, 24040-032) and 0.1% casein (Sigma, C4765), and plated in 384-well plates at a density of 5000 cells/well. […] The resulting decrease in intracellular cAMP was quantitatively determined using the CisBio cAMP Dynamic 2 HTRF Assay Kit. […]
The cAMP-d2 conjugate and the antibody anti-cAMP-Cryptate, both diluted in lysis buffer provided in the kit, were added to the cells according to the manufacturer's protocol. The resulting competitive assay was incubated for 60 minutes at room temperature, and the signal was detected by using a PerkinElmer Envision® instrument with excitation at 320 nm and emission at 665 nm and 620 nm. […] The resulting increase in intracellular cAMP was determined using the CisBio cAMP Dynamic 2 HTRF Assay Kit as described above. […]

[1] = Solubility by visual inspection of peptide solutions; assay type: physicochemical; settings: 1 mg/ml, TFA, Phosphate (7.4)
Procedure: (§1) Peptides were either dissolved in sodium phosphate buffer (50 mM, pH 7.4, filtered) or dissolved in ultrapure (MilliQ) water (adjusted to pH 7.4 with NaOH, filtered) (see Table 3). All peptide samples were prepared to a concentration of 1, 5, 7.5 or 15 mg/ml. All samples, with the exception of reference peptides GIP(3-30), AT158, and AT482 dissolved readily and produced clear and colorless solutions with gentle mixing. Peptide samples were subsequently filtered through 0.22 μm nylon filters (Q-Max® RR syringe filter, 13 mm, Frisenette, DK) to produce particle-free solutions. All samples were added to a 96-well plate reader for the ThT assay at t=0.
Clear visual appearance may be taken as an indicator of the immediate solubility of the peptide. […] Thus, A13Aib and/or N24E substitutions appear to increase solubility.

[2] = Physical stability: fibril formation in Thioflavin T (ThT) assay with agitation; assay type: physicochemical; settings: 1 mg/ml, TFA, Phosphate (7.4); 25° C., agitation
Procedure: Continuous measurement of the fluorescence emission at 486 nm can be used as a measure of fibrillation behavior of peptides and proteins. The time until onset of fibrillation or fibrillation lag time is estimated here by defining the lag time (Tlag) as the point in time where the signal relative to the pre-transition baseline has reached 10% of the post-transition baseline.
50 mM sodium phosphate buffer for dissolving some samples was prepared in ultrapure water (Milli-Q® Reference A+ System, Merck) with a resistivity of 18.2 MΩ·cm. The buffer was adjusted to pH 7.4 and filtered.
The ultrapure water (MilliQ) for dissolving some samples was adjusted to pH 7.4 with NaOH and filtered prior to sample preparation.
as §1
For each sample, […] ThT (1 mM) was added to 1.2 mL peptide solution. From this sample mixture, an amount of 200 uL/well was pipetted into four or five wells (n=4 or 5). Blank samples (buffer+ThT) were also included. One 3 mm silica bead was added to each well containing samples and the plate was subjected to orbital rotation at 300 rpm to agitate and stress the samples. The temperature was kept at 25° C. throughout the measurement.

CC[C@H](C)[C@H](NC(=O)[C@H](CO)NC(=O)[C@H](Cc1ccc(O)cc1)NC(=O)[C@H](CC(=O)O)NC(=O)[C@H](CO)NC(=O)[C@@H](NC(=O)[C@H](Cc1ccccc1)NC(=O)[C@@H](NC(=O)CNC(=O)[C@@H](N)CO)[C@@H](C)O)[C@@H](C)CC)C(=O)N[C@@H](C)C(=O)N[C@@H](CCSC)C(=O)N[C@@H](CC(=O)O)C(=O)N[C@@H](CCCCN)C(=O)N[C@H](C(=O)N[C@@H](CCCCNC(=O)COCCOCCNC(=O)COCCOCCNC(=O)CC[C@H](NC(=O)CCCCCCCCCCCCCCCCC(=O)O)C(=O)O)C(=O)N[C@@H](CCC(N)=O)C(=O)N[C@@H](CCC(N)=O)C(=O)N[C@@H](CC(=O)O)C(=O)N[C@@H](Cc1ccccc1)C(=O)N[C@H](C(=O)N[C@@H](CC(N)=O)C(=O)N[C@@H](Cc1c[nH]c2ccccc12)C(=O)N[C@@H](CC(C)C)C(=O)N[C@@H](CC(C)C)C(=O)N[C@@H](C)C(=O)N[C@@H](CCC(N)=O)C(=O)N[C@@H](CCCCN)C(=O)N1CCC[C@H]1C(=O)N[C@@H](CO)C(=O)N[C@@H](CO)C(=O)NCC(=O)N[C@@H](C)C(=O)N1CCC[C@H]1C(=O)N1CCC[C@H]1C(=O)N1CCC[C@H]1C(=O)N[C@@H](CO)C(=O)O)C(C)C)[C@@H](C)CC [AT437, reference compound] (H-SGTFISDYSIAMDKIK([AEEA-AEEA-γGlu-C18 diacid])QQDFVNWLLAQKPSSGAPPPS-OH; N-terminus assumed)
cAMP antagonism pIC50 (human GIP receptor): 7.5 | Visual appearance [1]: Clear | Avr lag time [2]: ~56 h
